In all, about 150,000 compounds went through this assay and about 540 (0.36%) showed an effect of 50% or more. The list shows a part of the results.

In this experiment the test system is Plasmodium falciparum. The experiment in a line: Primary screen in NF54 nanoGlo assay, in single point, at 2uM, 72h; a lower Z score goes with more inhibition. Type of experiment: functional, Erythrocyte. The following applies: timepoint 72 hour.
Usually % Inhibition stands for the change of the read-out against control, counted positive when it falls. For the compound `CCN1CCc2cc(OC)c(OC)cc2C1C(NC(=O)c1ccccc1Cl)C(C)C` (stereo not drawn), the “% Inhibition” value was -2% and the Z score is given as 0.25.

`CC1(C)CCCC(C(=O)N2C[C@@H](CO)[C@H](c3ccsc3)C2)C1` (stereo partly drawn): the “% Inhibition” value was -6% and the Z score stood at 1.21.

As to `COc1ccc2c(c1)C(N1CCN(C(=O)c3ccccc3Cl)CC1)=Nc1cc(C(F)(F)F)ccc1O2`, the “% Inhibition” value is recorded as -4% and the Z score was found to be 0.47.

As to `CCCC(=O)N1CCC(n2cnc3ccccc32)CC1`, the “% Inhibition” value is recorded as -20% and the Z score amounted to 2.27.

`CC(C)c1ccc(-n2nc3nc(N4CCCC4)nc(-c4ccccc4)c3c2N)cc1`: the “% Inhibition” value is given as -11% and the Z score came out at 1.43.

As to `C[C@H]1CCc2sc(C(=O)N(C)Cc3nnc4n3CCC4)cc2C1`, the “% Inhibition” value is recorded as -6% and the Z score was determined as 0.81.

Regarding `CC(C)(C)[C@H]1OCC[C@@H]1c1noc(-c2ccnc(-c3ccco3)c2)n1`, the “% Inhibition” value was -5% and the Z score is recorded as 0.58.

For the compound `O=c1[nH]c(C2CC2)ncc1-c1ncnn1CC(F)(F)F`, the “% Inhibition” value was -2% and the Z score came out at 0.32.

With `CN1CCN(C[C@@H](O)Cn2c3c(c4cccc(Cl)c42)CCCC3)CC1`, the “% Inhibition” value came out at 33% and the Z score is -3.78.

As for `O=C(Nc1ncccc1O)[C@@H]1CC=CCC1`, the “% Inhibition” value is -7% and the Z score was 1.19.

`Cc1noc2ncc(NC(=O)c3cnc(-c4ccsc4)s3)cc12`: the “% Inhibition” value is listed as -6% and the Z score was 0.73.

`Cn1c(=O)cnn(-c2cc3c(cc2F)OCC(=O)N3CC2CC2)c1=O`: the “% Inhibition” value is reported as -9% and the Z score was determined as 1.24.

`Cc1nc(C)c(-c2csc(COCc3ccccc3)n2)o1`: the “% Inhibition” value is -14% and the Z score is given as 1.41.

For the compound `O=S(=O)(c1ccc(F)c(F)c1)N1Cc2cncnc2C1`, the “% Inhibition” value is -19% and the Z score amounted to 3.31.

On to `Nc1ncncc1C(=O)NCc1cccc(CN2CCCCCC2)c1`, for which the “% Inhibition” value was -7% and the Z score amounted to 0.84.

As to `CC1(C)[C@H](Cc2cc(CN3CCN(c4ccccc4)CC3)on2)C[C@@H]1NC1CCC1`, the “% Inhibition” value worked out at 17% and the Z score is -1.99.

With `CCn1nccc1-c1nc(N2CCOCC2)n(C)n1`, the “% Inhibition” value was -7% and the Z score came out at 0.93.

As for `CCCOc1ccc([C@H]2C(=O)N(C3CCCCC3)CC(=O)N2CCCOCC)cc1OC`, the “% Inhibition” value is 15% and the Z score was -1.47.

Turning to `O=C(NCCOCCc1ccccc1)C(=O)Nc1c(F)cccc1F`, the “% Inhibition” value is reported as -10% and the Z score was found to be 1.89.

On to `COc1ccccc1N1CCN(C(=O)C(F)(F)C(F)(F)C(=O)N2CCN(c3ccccc3OC)CC2)CC1`, for which the “% Inhibition” value is listed as -10% and the Z score is listed as 1.55.

In the case of `Cc1cc2nc3n(c(=O)c2n1CC(=O)NCCc1ccc(Cl)cc1)CCCC3`, the “% Inhibition” value was -11% and the Z score worked out at 1.22.

As to `CCn1nc(-c2cccc([C@H](C)N(C)C)c2)nc1N(C)C`, the “% Inhibition” value is -7% and the Z score is 0.93.

Turning to `OC1=Nc2c(ncn2-c2ccc(OC(F)(F)F)cc2)[C@@H](c2cccnc2)C1`, the “% Inhibition” value came to 28% and the Z score is recorded as -3.18.

On to `CN(C)C(=O)c1cncc(Br)c1`, for which the “% Inhibition” value is -4% and the Z score was determined as 0.38.

Consider `CC(=O)N[C@H]1CCN(C(=O)N[C@H](C)C(c2ccccc2)c2ccccc2)C1`, for which the “% Inhibition” value is given as -8% and the Z score is 0.75.

Take `O=C(Cc1cccs1)N1CC[C@@H](c2ccccc2)S(=O)(=O)CC1`: the “% Inhibition” value stood at 4% and the Z score is on record as -0.65.

On to `CC(C)(C)OC(=O)NCc1ccccc1O`, for which the “% Inhibition” value was found to be 33% and the Z score is given as -4.2.

`CC(C)Oc1cccc(N(C)Cc2ccsc2)n1`: the “% Inhibition” value is given as -9% and the Z score is recorded as 0.99.

For `C#CCCC1(CCC(=O)N2CCC(C(=O)O)C3CCCCC32)N=N1` (stereo not drawn), the “% Inhibition” value is -5% and the Z score was 0.74.

On to `COc1ccc(F)c(CNC2(c3nccs3)CCCC2)c1`, for which the “% Inhibition” value is 5% and the Z score is -0.62.

For the compound `Cn1c(=O)n([C@@H]2CCN(C(=O)COc3ccccc3)C2)c2ncccc21`, the “% Inhibition” value is listed as -13% and the Z score was 1.72.

In the case of `CC(C)N1CCNC(=O)[C@@H]1CC(=O)N1CCCCCCCC1`, the “% Inhibition” value is given as -6% and the Z score is 0.91.

For the compound `NC(=O)C1CCN(C(=O)c2cc3c(s2)CCCCCC3)CC1`, the “% Inhibition” value is on record as -3% and the Z score came to 0.43.

Consider `C#CCNC(=O)[C@H](C)N1CCN(C(C)C)CC1`, for which the “% Inhibition” value is given as -9% and the Z score is 0.88.

With `O=C(N[C@H]1CCN(Cc2cscn2)C[C@@H]1O)c1ccc(-c2ccco2)cc1`, the “% Inhibition” value is on record as -17% and the Z score was 3.24.

For the compound `O=C1CCCN1Cc1ncnn1Cc1ccc2c(c1)OCO2`, the “% Inhibition” value was -4% and the Z score is 0.57.

On to `O=C(CN1C=CCC=C1c1nc(-c2ccc(Br)cc2)cs1)c1ccccc1`, for which the “% Inhibition” value was determined as 65% and the Z score is given as -4.25.

Turning to `Cc1ccc(CNC(=O)c2c(-c3ccncc3)noc2C)o1`, the “% Inhibition” value is 1% and the Z score was -0.25.

Regarding `CCOC(=O)[C@@H](NS(=O)(=O)CC1CCCCO1)C(C)(C)C` (stereo partly drawn), the “% Inhibition” value is reported as -4% and the Z score came to 0.5.

Regarding `O=c1c2ccoc2ccn1Cc1ccc(OC(F)F)cc1`, the “% Inhibition” value is -8% and the Z score was found to be 0.89.

Consider `O=C(Cc1n[nH]c(-c2cccnc2)n1)NCCc1ccccc1`, for which the “% Inhibition” value was 8% and the Z score was -0.94.

Regarding `CCc1ccc(-c2cc3n(n2)C[C@@](C)(C(=O)NC2CCCCC2)N(CCN(CC)CC)C3=O)cc1`, the “% Inhibition” value stood at 9% and the Z score is listed as -1.36.

With `CCO[C@@H](C)c1nc(Cn2ncccc2=O)cs1`, the “% Inhibition” value was -1% and the Z score stood at 0.11.

For the compound `O=C(Cc1ccccc1Cl)Nc1cc(-n2ccnc2)ncn1`, the “% Inhibition” value is given as -7% and the Z score came to 1.18.

For the compound `COCCOCc1nc([C@@H]2CCCCN2C(=O)Nc2ccc(F)cc2F)no1`, the “% Inhibition” value is reported as -10% and the Z score came to 1.27.

As to `O=C(NCc1ccc2c(c1)OCO2)c1cc(-c2ccccc2)nc2ccccc12`, the “% Inhibition” value is on record as -5% and the Z score was 0.71.

As to `Cc1ccoc1C(=O)N(C)c1nc2ccccc2o1`, the “% Inhibition” value was found to be 0% and the Z score is given as -0.06.

For the compound `COc1ccc(-c2c(-c3cccc(OC)c3)[nH]c3[nH]c(=O)[nH]c(=O)c23)cc1`, the “% Inhibition” value is recorded as -5% and the Z score is 0.84.

With `CCc1ccc(C(=O)N[C@@H](CC(C)C)c2cccnc2)[nH]1`, the “% Inhibition” value is given as 13% and the Z score is recorded as -1.71.

Turning to `CCC1C2C(=O)N(c3ccc(Br)cc3)C(=O)C2C(C(N)=O)N1C` (stereo not drawn), the “% Inhibition” value is -41% and the Z score came to 4.85.

With `O=C(NCCc1ccccc1OC(F)F)N1CCOC[C@H]1C1CC1`, the “% Inhibition” value was 4% and the Z score is given as -0.49.

Turning to `CC(C)c1cc(C(=O)N2CCCCC(C)(C)C2)no1`, the “% Inhibition” value is -3% and the Z score came out at 0.35.

For `Cn1nccc1-c1ccc(CNC(=O)[C@H]2CCOC2)cn1`, the “% Inhibition” value is recorded as -1% and the Z score is on record as 0.08.

`Cc1cc(CCNC(=O)N2CC3CC4CC3C2C4O)cc(C)c1O` (stereo not drawn): the “% Inhibition” value was -6% and the Z score worked out at 0.93.

The values are drawn from ChEMBL document CHEMBL4888484, “Replenishing the malaria drug discovery pipeline: Screening and hit evaluation of the MMV Hit Generation Library 1 (HGL1) against asexual blood stage Plasmodium falciparum ,using a nano luciferase reporter read-out” (2022).
